Laboratory results: publication PMC4336329 (PLoS ONE, 2015)
Hit rate of the full screen: of about 310,000 compounds, about 2,200 (0.71%) showed an effect of 50% or more. The effect is printed as a negative number. Some of the results follow.

These molecules were tested against human ether-à-go-go-related gene (hERG) potassium channel (human, UniProt Q12809) (assay: primary screen, population patch clamp on CHO cells stably expressing hERG).
human ether-à-go-go-related gene (hERG) potassium channel, sequence (Q12809 whole entry, looked up): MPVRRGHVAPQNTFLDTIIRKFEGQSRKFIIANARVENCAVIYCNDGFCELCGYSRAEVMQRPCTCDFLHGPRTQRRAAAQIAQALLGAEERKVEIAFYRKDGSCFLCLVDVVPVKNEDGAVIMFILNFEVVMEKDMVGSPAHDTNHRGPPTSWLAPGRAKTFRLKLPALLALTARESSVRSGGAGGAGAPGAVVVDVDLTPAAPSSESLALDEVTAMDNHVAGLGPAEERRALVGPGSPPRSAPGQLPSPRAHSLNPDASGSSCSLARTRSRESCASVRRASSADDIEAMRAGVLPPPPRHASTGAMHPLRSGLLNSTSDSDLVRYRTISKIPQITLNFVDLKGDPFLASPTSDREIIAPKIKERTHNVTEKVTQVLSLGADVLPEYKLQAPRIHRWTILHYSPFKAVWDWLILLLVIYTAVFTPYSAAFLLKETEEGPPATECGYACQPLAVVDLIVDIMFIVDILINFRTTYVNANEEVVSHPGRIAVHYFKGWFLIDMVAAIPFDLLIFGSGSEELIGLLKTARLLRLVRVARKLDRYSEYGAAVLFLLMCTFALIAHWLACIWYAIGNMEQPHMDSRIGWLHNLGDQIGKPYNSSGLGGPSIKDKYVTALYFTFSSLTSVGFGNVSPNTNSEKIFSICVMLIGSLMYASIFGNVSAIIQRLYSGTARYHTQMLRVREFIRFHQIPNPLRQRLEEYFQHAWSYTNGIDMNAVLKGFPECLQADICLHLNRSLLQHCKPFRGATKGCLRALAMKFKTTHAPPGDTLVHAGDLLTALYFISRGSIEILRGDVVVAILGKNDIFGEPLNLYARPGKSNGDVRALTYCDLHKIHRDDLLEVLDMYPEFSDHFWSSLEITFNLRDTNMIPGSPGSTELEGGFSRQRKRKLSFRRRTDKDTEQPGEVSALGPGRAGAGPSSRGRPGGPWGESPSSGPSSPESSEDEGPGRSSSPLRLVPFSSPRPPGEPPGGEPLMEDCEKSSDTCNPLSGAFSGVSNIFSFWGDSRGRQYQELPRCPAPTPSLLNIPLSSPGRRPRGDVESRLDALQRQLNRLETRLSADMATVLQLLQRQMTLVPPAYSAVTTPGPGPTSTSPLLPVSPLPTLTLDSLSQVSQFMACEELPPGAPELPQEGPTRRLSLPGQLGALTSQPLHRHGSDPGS

Row | Structure (SMILES) | hERG current change (%, negative = inhibition) at 1uM [%]
1 | CCC(CNc1cc(OC)cc2cccnc12)NC1CCCCC1 (stereo not drawn) | 1.83
2 | Cc1nc(-c2ccccc2)nc2sc(C(=O)c3ccc(F)cc3)c(N)c12 | 5.58
3 | CCOc1ccc(Nc2nc(N3CCCCC3)nc(N3CCCCC3)n2)cc1 | 2.11
4 | COc1ccc(N(C(=O)Cn2nnc3ccccc32)C(C(=O)NC(C)(C)C)c2ccc(OC)c(O)c2)cc1 (stereo not drawn) | 14.6
5 | CCN(CC)C(=O)c1ccc(S(=O)(=O)N2CCC(c3nc4ccccc4s3)CC2)cc1 | 2.13
6 | CCOc1ccc(OCC(=O)Nc2ccc(OC)cc2[N+](=O)[O-])cc1 | 8.89
7 | COc1cccc(NC(=O)C2CCC(CNS(=O)(=O)c3cccs3)CC2)c1 (stereo not drawn) | 16.1
8 | O=C(COC(=O)Cc1ccsc1)Nc1cccc(Cl)c1 | 0.601
9 | CS(=O)(=O)Nc1ccc(-c2n[nH]c(=S)n2-c2ccccc2)cc1 | -6.01
10 | COc1ccc(NS(=O)(=O)c2csc(C(=O)Nc3ccccc3)c2)cc1 | 9.66
11 | CCC1(C)NC(=O)N(CC(=O)N2CCC(Cc3ccccc3)CC2)C1=O (stereo not drawn) | 11.1
12 | O=C(c1ccc(Cl)cc1)c1ccc(OCC(O)CN2CCCCC2)cc1 (stereo not drawn) | -42.2
13 | COC(=O)c1ccc2c(=O)n(-c3ccccc3)c(=S)[nH]c2c1 | 11.8
14 | Cc1c(CNC2CCCC2)c(C(=O)O)c(C)n1Cc1ccccc1 | 10.7
15 | NC(=S)N=Nc1c(O)n(Cc2ccc(Br)cc2)c2ccccc12 | 13.9
16 | CCOC(=O)/C=C/C(=O)Nc1ccc(S(=O)(=O)Nc2nccs2)cc1 | 9.05
17 | COc1ccc(C2=NN(CC(=O)NCc3ccco3)C(=O)CC2)cc1 | 9.02
18 | CCCCc1ccc(NC(=S)NCc2cccs2)cc1 | 22.6
19 | CCCCCCCCC(=O)N/N=C(\C)c1ccco1 | 10.1
20 | COc1ccc(S(=O)(=O)[O-])cc1P(=O)(c1ccccc1)c1ccccc1.[Na+] | 6.37
21 | CC(C)CNC(=O)c1cccc(NC(=O)Cc2ccc(Br)cc2)c1 | 8.87
22 | N#Cc1ccc(NC(=O)Cn2cnc(S(=O)(=O)N3CCCC3)c2)cc1 | 15.7
23 | CN(C(=O)CCS(=O)(=O)c1cc2c(cc1Cl)NC(=O)CO2)C1CCCCC1 | 7.08

Row | Structure (SMILES) | hERG current change (%, negative = inhibition) at 1uM [%]
24 | CC(=NCc1ccco1)c1c(C)[nH]n(-c2nc3ccccc3s2)c1=O | 6.83
25 | CC(C(=O)Nc1ccc2c(c1)OCCO2)N(c1ccccc1)S(C)(=O)=O (stereo not drawn) | 4.8
26 | CC(=O)N1CCN(c2nc(-c3cccs3)nc3ccccc23)CC1 | -49.4
27 | CN(C)S(=O)(=O)c1ccc(N2CCCC2)c(C(=O)NNC(=O)COc2ccccc2F)c1 | -30
28 | COc1ccc(-c2cc(C(=O)O)nc3ccc4ccccc4c23)cc1OC | 14.1
29 | CC(C)(C)NC(=O)COC(=O)c1cc(F)c(F)cc1Cl | 11.7
30 | CS(=O)(=O)N(CC(=O)NCc1ccco1)c1ccc(Cl)c(C(F)(F)F)c1 | 4.04
31 | CCCCNC(=S)N/N=C/c1ccc(C#N)cc1 | 17
32 | CCCNC(=O)COc1ncnc2sccc12 | 0.673
33 | CCN1CCSc2ccc(C(=O)NCc3ccccc3C)cc21 | 6.38
34 | CSCCC(NC(=O)c1cncc(Br)c1)C(=O)O (stereo not drawn) | 2.94
35 | O=C(NCCCn1ccnc1)c1ccco1 | 5.46
36 | CC(C)(C)NS(=O)(=O)c1cc(C(=O)Nc2sccc2C#N)ccc1Cl | 16.1
37 | CCOc1ccccc1NC(=O)Nc1ccc(Cl)cc1 | -3.98
38 | CCOC(=O)N1CCN(C(=O)Nc2ccccc2Cl)CC1 | 11.8
39 | COc1ccc(OC)c(C2C(C(=O)c3ccco3)=C(O)C(=O)N2CCN2CCOCC2)c1 (stereo not drawn) | 10.5
40 | CN1Cc2ccccc2CC1CNCc1c(C(=O)N2CCCC2)nc2ccccn12 (stereo not drawn) | -42
41 | O=C(c1cccc(NS(=O)(=O)c2ccccc2)c1)N1CCCCC1 | 0.63
42 | Cc1ccc(-n2nnnc2SCc2ccc(C(=O)O)cc2)cc1C | -80.9
43 | O=[N+]([O-])c1cccnc1Oc1ccc(OCc2ccccc2)cc1 | 0.0337
44 | Cc1cccc(N2CCN(C(=O)c3ccc4c(c3)CCN4S(C)(=O)=O)CC2)c1C | 9.95
45 | Cc1n(CC(O)COC2CCCCC2)c2ccccc2[n+]1C.[I-] (stereo not drawn) | 4.62
46 | CC(=O)c1c(C)[nH]c(C(=O)OCC(=O)N(C)C)c1C | 3.44

Row | Structure (SMILES) | hERG current change (%, negative = inhibition) at 1uM [%]
47 | Cc1ccc(NC(=O)CN2CCCCCC2)cc1Br.Cl | 5.2
48 | C[C@H](CCC(=O)O)[C@H]1CC[C@H]2[C@@H]3[C@H](O)C[C@@H]4C[C@H](O)CC[C@]4(C)[C@H]3C[C@H](O)[C@]12C | 10.9
49 | Fc1ccc(CN2CCCCCCC2)c(F)c1 | 14.2
50 | C=CCNC(=O)C12CC3CC(C1)CC(C(=O)NCC=C)(C3)C2 | -3.26
51 | N#CCCN(CC(=O)O)S(=O)(=O)c1ccccc1 | 7.84
52 | Cc1nccn1-c1ccc(C(F)(F)F)cc1[N+](=O)[O-] | 12.9
53 | O=C(NCc1cccc(C(F)(F)F)c1)c1ccc[nH]1 | 10.1
54 | CCCn1c(SCC(=O)Nc2cccc(Cl)c2Cl)n[nH]c1=O | 12.6
55 | Cn1c(O)c(/C=C2\N=c3ccccc3=C2CCNC(=S)NC2CC2)c(=O)n(C)c1=O | -24.1
56 | Cc1coc(NC(=O)CSc2nc(-c3ccc(Cl)cc3)cc(C(F)(F)F)c2C#N)n1 | 3.16
57 | CCC(C)[C@H](NC(=O)N1CCC(C)CC1)C(=O)OC (stereo partly drawn) | 15.4
58 | CC1CCN(CCCNC(=O)C2CCC(=O)N2C2CCCC2)CC1 (stereo not drawn) | -2.34
59 | COc1ccc(C(=O)COC(=O)C2CCN(S(=O)(=O)c3cccc4cccnc34)CC2)cc1 | 11.2
60 | Cc1nn(Cc2ccccc2Cl)c2sc(C(=O)NC(C)(C)C)cc12 | 19
61 | CCOC(=O)Cn1nc(C(F)F)c(Br)c1C | 25.9
62 | Cc1ccnc(SCc2ccc([N+](=O)[O-])cc2)n1 | -1.04
63 | COc1ccc(NC(=O)CN2C(=O)NC(CC(C)C)C2=O)cc1S(=O)(=O)N1CCOCC1 (stereo not drawn) | 10.1
64 | N#CC1=C(S)N(c2ccccc2)C(c2ccc(-c3cc(Cl)ccc3Cl)o2)NC1=O (stereo not drawn) | 8.29
65 | NC(=O)c1c(NC(=O)c2ccccc2F)sc2c1CCCC2 | 15.6
66 | CN(C)C1=NCCN1CCCC1CCCC1 | -22.6
67 | CN(C)S(=O)(=O)c1ccc(C(=O)Oc2ccccc2)cc1 | 7.36
68 | Cc1c(NC(=O)CCC(=O)N2CCOCC2)c(=O)n(-c2ccccc2)n1C | 4.78
69 | CC1CCC(C(C)C)C(OCC(O)CNC(C)C)C1.Cl (stereo not drawn) | 14.1

Row | Structure (SMILES) | hERG current change (%, negative = inhibition) at 1uM [%]
70 | Cc1ccc(CCNC(=O)Cn2ncc3c([nH]c4ccccc43)c2=O)cc1 | 13.2
71 | C/C(=N/NC(=O)CNC(=O)COc1ccccc1)c1ccc(Cl)cc1 | 14.6
72 | COc1cccc(Nc2nnc(SCc3cc([N+](=O)[O-])cc4c3OCOC4)s2)c1 | 4.46
73 | O=C(CN1C(=O)S/C(=C\C=C\c2ccccc2)C1=O)Nc1ccc(O)cc1 | 8.04
74 | N#Cc1cc2c(ccc3ccccc32)oc1=O | 14.4
75 | COc1ccc(CNCc2c(F)cccc2F)cc1OC.O=C(O)C(=O)O | 14.6
76 | COc1cccc(CN(C)C(=O)c2ccccc2Sc2ccccc2C#N)c1OC | 31.6
77 | CCc1ccccc1NC(=O)CSc1nnc(-c2ccncc2)o1 | 7.1
78 | NS(=O)(=O)c1ccc(CNC(=O)c2scc3c2CCCC3)cc1 | 5.74
79 | Cc1ccc(C(=O)Nc2ccc(Cl)cc2C)c(Cl)c1 | 11.4
80 | Cc1ccc(NC(=O)/C=C\C(=O)O)c([N+](=O)[O-])c1 | 12.3
81 | Cc1c(C#N)c2ccccc2n1CC(=O)NC(C)c1ccccc1 (stereo not drawn) | 4.94
82 | CCOC(=O)N1CCN(C(=O)C2CCN(Cc3ccc(OC)cc3OC)CC2)CC1.O=C(O)C(=O)O | -2.07
83 | Cc1ccc2nc(SCC(=O)N3CCCCCC3)nc(=O)n2c1 | 9.96
84 | C=CCn1c(COc2ccccc2C)nnc1SCC(=O)O | 16.9
85 | CCSC(=O)CCCCCCCCCCCO | 5.67
86 | CC(=O)N1c2ccc(S(=O)(=O)NCCC(=O)NCc3ccc(N(C)C)cc3)cc2CC1C (stereo not drawn) | 12.6
87 | O=C(COc1nnc2ccccn12)N1CCN(S(=O)(=O)c2ccccc2)CC1 | 14.7
88 | O=C1Nc2ccc(Cl)cc2C12Nc1ccccc1-c1nnc(SCc3ccccc3F)nc1O2 (stereo not drawn) | 4.35
89 | COc1ccc(CCNC(=O)c2cc(C)oc2C)cc1OC | 9.85
90 | CCN(CC)S(=O)(=O)c1ccc(NC(=O)c2ccc(N(C)S(C)(=O)=O)cc2)cc1 | 8.93
